The list shows a part of the results. Many values rest on one well or one pass, so single values are uncertain.
Key:
Assay in all cases: cell count relative to DMSO control; melanoma cells; higher = more viable cells
Settings in all cases: library dose: standard library concentration; 72 h
G361 = tested on: G361
IPC-298 = tested on: IPC-298
IST-MEL1 = tested on: IST-MEL1
LB2518-MEL = tested on: LB2518-MEL
LOXIMVI = tested on: LOXIMVI
MEL-HO = tested on: MEL-HO
MZ2-MEL = tested on: MZ2-MEL
MeWo = tested on: MeWo
RPMI7951 = tested on: RPMI7951
RVH-421 = tested on: RVH-421
SkMel28 = tested on: SkMel28
SkMel2 = tested on: SkMel2
SkMel30 = tested on: SkMel30
SkMel5 = tested on: SkMel5
UACC257 = tested on: UACC257
UACC62 = tested on: UACC62
WM115 = tested on: WM115
WM1716 = tested on: WM1716
WM3526 = tested on: WM3526
WM1745 = tested on: WM1745
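Note: cells treated in 1,536-well plates, then fixed and DAPI-stained, with nuclei counted from automated high-throughput microscope images.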

Row | Compound | cell count (G361) | cell count (IPC-298) | cell count (IST-MEL1) | cell count (LB2518-MEL) | cell count (LOXIMVI) | cell count (MEL-HO) | cell count (MZ2-MEL) | cell count (MeWo) | cell count (RPMI7951) | cell count (RVH-421) | cell count (SkMel28) | cell count (SkMel2) | cell count (SkMel30) | cell count (SkMel5) | cell count (UACC257) | cell count (UACC62) | cell count (WM115) | cell count (WM1716) | cell count (WM3526) | cell count (WM1745)
1 | Nc1nc(F)nc2c1ncn2[C@@H]1O[C@H](CO)[C@@H](O)[C@@H]1O [fludarabine] + COc1ccc2c(c1)CCC1C2CCC2(C)C(NCCCCCCN3C(=O)C=CC3=O)CCC12 [U73122] (first compound 1 µM, partner dose 2 µM) | 79.6% | 82.3% | 77.8% | 83.7% | 61.7% | 85.9% | 93.4% | 68.2% | 35.8% | 165% | 2.11% | 1.71% | 14.2% | 24.6% | 23.1% | 86.3% | 90.1% | 60.1% | 21.5% | –
2 | CC(=O)c1c(C)c2cnc(Nc3ccc(N4CCNCC4)cn3)nc2n(C2CCCC2)c1=O [palbociclib] + Oc1nc(-c2ccc(C(F)(F)F)cc2)nc2c1CSCC2 [XAV939] (first compound 0.2 µM, partner dose 10 µM) | 70.9% | 64% | 68.3% | 51.1% | 67% | 67.9% | 64.6% | 54% | 61.3% | 76.8% | 30.7% | 60.6% | 58.7% | 60.8% | 82.7% | 48.5% | 45.3% | 26.6% | 50.1% | –
3 | CC(=O)O[C@@]12CO[C@@H]1C[C@H](O)[C@@]1(C)C(=O)[C@H](O)C3=C(C)[C@@H](OC(=O)[C@H](O)[C@@H](NC(=O)OC(C)(C)C)c4ccccc4)C[C@@](O)([C@@H](OC(=O)c4ccccc4)[C@H]21)C3(C)C [Docetaxel] + c1cc(-c2cnn3cc(-c4ccc(OCCN5CCCCC5)cc4)cnc23)ccn1 [Dorsomorphin] (first compound 0.0005 µM, partner dose 2 µM) | 15.8% | 34% | 44% | 44.7% | 60% | 48.6% | 32.4% | 29% | 31.9% | 60.7% | 10.2% | 26.3% | 46.9% | 34.4% | 62.3% | 53.4% | 34.2% | 30.3% | 33.2% | –
4 | Nc1ncn([C@H]2C[C@H](O)[C@@H](CO)O2)c(=O)n1 [decitabine] + COC(=O)c1sccc1S(=O)(=O)Nc1ccc(Nc2ccccc2)cc1OC [GSK0660] (first compound 0.5 µM, partner dose 5 µM) | 108% | 53.7% | 84.7% | 65.4% | 111% | 88.6% | 77.3% | 71% | 96% | 74.6% | 112% | 93.6% | 103% | 74.3% | 95.4% | 64.6% | 74.8% | 80.8% | 112% | –
5 | Nc1ncn([C@H]2C[C@H](O)[C@@H](CO)O2)c(=O)n1 [decitabine] + O=C(O)C(=O)Nc1sc2c(c1C(=O)O)CCNC2 [TCS401] (first compound 0.5 µM, partner dose 8.33333 µM) | 95.6% | 65.3% | 80.7% | – | 117% | 78.4% | – | 77% | 70.2% | 80.3% | 90.1% | – | 110% | 70.6% | 91.4% | 94.1% | 75% | 68% | 97.1% | –
6 | CC(=O)O[C@@]12CO[C@@H]1C[C@H](O)[C@@]1(C)C(=O)[C@H](O)C3=C(C)[C@@H](OC(=O)[C@H](O)[C@@H](NC(=O)OC(C)(C)C)c4ccccc4)C[C@@](O)([C@@H](OC(=O)c4ccccc4)[C@H]21)C3(C)C [Docetaxel] + N#Cc1c(O)c2c(-c3ccc(-c4ccccc4O)cc3)csc2[nH]c1=O [A769662] (first compound 0.0005 µM, partner dose 10 µM) | 12.3% | 52.9% | 46.7% | 53.3% | 64% | 45.9% | 51.1% | 27.9% | 28.9% | 56.4% | 19.8% | 23.4% | 78% | 33% | 75.9% | 57.8% | 45.1% | 36% | 47.8% | –
7 | CO[C@H]1C[C@@H]2CC[C@@H](C)[C@@](O)(O2)C(=O)C(=O)N2CCCC[C@H]2C(=O)O[C@H]([C@H](C)C[C@@H]2CC[C@@H](OCCO)[C@H](OC)C2)CC(=O)[C@H](C)/C=C(\C)[C@@H](O)[C@@H](OC)C(=O)[C@H](C)C[C@H](C)/C=C/C=C/C=C/1C [everolimus] + CCc1ccc(CCOc2ccc(CC3SC(=O)NC3=O)cc2)nc1 [pioglitazone] (first compound 0.1 µM, partner dose 10 µM) | 59.1% | 77.1% | 75% | – | 97.5% | 77.6% | – | 64.1% | 75.3% | 86% | 42.6% | 74.7% | 73.9% | 59.1% | 96.1% | 79.2% | 80.8% | 70.9% | 89.6% | –
8 | CO[C@H]1C[C@@H]2CC[C@@H](C)[C@@](O)(O2)C(=O)C(=O)N2CCCC[C@H]2C(=O)O[C@H]([C@H](C)C[C@@H]2CC[C@@H](OCCO)[C@H](OC)C2)CC(=O)[C@H](C)/C=C(\C)[C@@H](O)[C@@H](OC)C(=O)[C@H](C)C[C@H](C)/C=C/C=C/C=C/1C [everolimus] + CN(C)S(=O)(=O)c1ccc2c(c1)/C(=C/c1cc3c([nH]1)CCCC3)C(=O)N2 [SU6656] (first compound 0.1 µM, partner dose 2 µM) | 63.3% | 83.9% | 65.7% | – | 84.5% | 80% | – | 73.5% | 52.3% | 78.6% | 54.6% | 80.2% | 73.6% | 64.5% | 90.5% | 71.8% | 41.5% | 69.2% | 64.8% | 74%
